Experimental data as given in PubChem BioAssay AID720709 (National Center for Advancing Translational Sciences (NCATS), 2013).
Among all 360,000 compounds or so, about 520 (0.14%) were called active. The inconclusive results got no clear call from the source; some entries with a clear call stand among them for comparison. The call rests on the fitted dose curve; in most records, active means well fitted inhibition curve with a large enough effect; inconclusive means small, poorly fitted or top-dose-only effect; inactive means no such curve, though single readings can be large or run the other way. Potencies of inconclusive entries are left out as doubtful fits.

molecular target: Rap guanine nucleotide exchange factor 3 (Homo sapiens) (UniProt O95398); assay: qHTS for Antagonist of cAMP-regulated guanine nucleotide exchange factor 3 (EPAC1): primary screen; conditions: EPAC1 GEF assay, Rap1b-BODIPY-GDP exchange fluorescence; activity change, negative = inhibition: at 115 µM (top of the series); further: nearly all actives have a fitted effect of over 50% in size;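 on activity change, negative = inhibition: plate controls were vehicle for no effect and positive control for full effect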
UniProt O95398, sequence (O95398 whole entry, looked up): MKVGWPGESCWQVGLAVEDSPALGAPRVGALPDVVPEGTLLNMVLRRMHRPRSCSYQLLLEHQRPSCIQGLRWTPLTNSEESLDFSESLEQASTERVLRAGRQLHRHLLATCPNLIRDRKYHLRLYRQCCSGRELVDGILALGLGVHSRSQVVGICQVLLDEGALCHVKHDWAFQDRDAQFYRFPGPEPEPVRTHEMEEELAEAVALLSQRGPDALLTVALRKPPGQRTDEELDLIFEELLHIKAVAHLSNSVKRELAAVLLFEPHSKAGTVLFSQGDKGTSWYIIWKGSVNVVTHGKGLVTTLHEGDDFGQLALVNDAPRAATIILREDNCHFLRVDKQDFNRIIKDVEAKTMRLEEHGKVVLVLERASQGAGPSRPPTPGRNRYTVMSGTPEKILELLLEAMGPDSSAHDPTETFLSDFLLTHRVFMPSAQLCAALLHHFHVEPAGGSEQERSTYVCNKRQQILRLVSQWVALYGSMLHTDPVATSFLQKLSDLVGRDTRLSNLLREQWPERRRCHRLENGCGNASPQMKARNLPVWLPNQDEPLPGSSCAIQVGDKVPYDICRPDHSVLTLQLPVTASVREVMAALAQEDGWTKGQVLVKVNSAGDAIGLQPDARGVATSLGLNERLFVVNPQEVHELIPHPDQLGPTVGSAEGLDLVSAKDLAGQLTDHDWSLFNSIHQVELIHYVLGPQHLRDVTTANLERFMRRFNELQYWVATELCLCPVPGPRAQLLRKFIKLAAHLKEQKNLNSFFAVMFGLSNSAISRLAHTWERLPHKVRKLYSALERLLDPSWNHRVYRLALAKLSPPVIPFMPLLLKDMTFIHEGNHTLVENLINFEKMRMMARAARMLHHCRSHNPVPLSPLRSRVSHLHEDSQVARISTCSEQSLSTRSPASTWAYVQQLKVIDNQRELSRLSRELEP
Potency means the concentration at half of the fitted maximal effect; tags describe the fitted curve by direction and shape.

| SMILES | Potency | activity change, negative = inhibition |
| --- | --- | --- |
| CCNc1ccc(Br)cc(C(=O)/C=C/c2ccc3c(c2)OCO3)c1=O | inconclusive [inhibitor, full curve, poor fit] |  |
| CCc1ccc(NC(=S)Nc2cccc(OC)c2)cc1 | inconclusive [inhibitor, single point] |  |
| O=C(CSc1c[nH]c2ccccc12)N1CCCc2ccccc21 |  | inconclusive: -18.9% [inhibitor] |
| O=C(NNC(=O)c1ccccc1F)c1cccc(-n2cccc2)c1 | inconclusive [inhibitor, partial curve] |  |
| CCOc1ccc(OCCC(=O)OCC(=O)c2c(N)n(CC(C)C)c(=O)n(C)c2=O)cc1 | inactive |  |
| CCc1nnc(NC(=O)c2cc(-c3ccco3)nc3ccccc23)s1 | inconclusive [inhibitor, partial curve] |  |
| COC(=O)C[C@@H]1C=C[C@H](NC(=O)Cc2ccccn2)[C@@H](CO)O1 | inactive |  |
| CC(NC(=O)COc1cccnc1[N+](=O)[O-])c1ccc(Cl)cc1 (stereo unspecified) | inactive |  |
| COc1ccc(CCNC(=O)c2nnn(CC(=O)Nc3ccc(C)cc3C)c2N)cc1OC | inconclusive [inhibitor, full curve, poor fit] |  |
| CCOC(=O)[C@]12CCC=C1N(Cc1ccccc1)C(=O)[C@H](CC(=O)NCc1cccc(C(F)(F)F)c1)C2 | inactive |  |
| O=C(N/N=C/c1sc2ccccc2c1O)c1cccc2ccccc12 | inconclusive [inhibitor, partial curve] |  |
| COc1cccc(CN2C(=O)c3ccccc3S2(=O)=O)c1 | inconclusive [inhibitor, full curve, poor fit] |  |
| CC(C)(C)c1ccc(C(=O)NCC2CCCN2S(=O)(=O)c2ccccc2)cc1 (stereo unspecified) | inconclusive [inhibitor, single point] |  |
| CCOC(=O)C1(CC2CCCCO2)CCN(C(=O)Nc2ccc(C(=O)OC)cc2)CC1 (stereo unspecified) | inconclusive [inhibitor, full curve, poor fit] |  |
| COc1cc(/C=N/Nc2ccc(Cl)c(C(=O)O)c2)ccc1OC(=O)c1ccccc1F | inconclusive [inhibitor, full curve, poor fit] |  |
| Cc1ccc(NC(=S)N2CCC(NC(=O)c3ccco3)CC2)cc1C | inconclusive [inhibitor, partial curve] |  |
| O=C(NN1C(=O)/C(=C/C=C/c2ccco2)SC1=S)c1ccncc1 | inconclusive [inhibitor, partial curve] |  |
| CC1CCCCN1C(=O)CSc1nnc(-c2ccco2)n1C (stereo unspecified) | inconclusive [inhibitor, single point] |  |
| O=C(CCc1nnc2n(Cc3ccccc3)c(=O)c3ccccc3n12)NCCN1CCOCC1 | inconclusive [inhibitor, partial curve, poor fit] |  |
| O=Cc1[nH]c2ccccc2c1N(C(=O)CCl)c1ccccc1 | inconclusive [inhibitor, partial curve, poor fit] |  |
| Cc1ccc(N2CCN(S(=O)(=O)c3ccc(F)cc3)CC2)c(C)c1 | inconclusive [inhibitor, partial curve] |  |
| CC1CCc2nn(CC(=O)NC3CCCC3)cc2C1 (stereo unspecified) | inconclusive [inhibitor, partial curve] |  |

| SMILES | Potency | activity change, negative = inhibition |
| --- | --- | --- |
| CC(=O)Oc1ccc(/C=N/NC(=O)CCSc2ccccc2)cc1 | inconclusive [inhibitor, full curve, poor fit] |  |
| Cc1ccoc1C(=O)NCCNc1ccc(Cl)cc1[N+](=O)[O-] | inconclusive [inhibitor, partial curve] |  |
| COc1ccc(Br)cc1/C=N/N1C(=O)CSC1=S | inconclusive [inhibitor, partial curve] |  |
| COc1ccc(NS(=O)(=O)c2ccc3c(c2)CCO3)cc1 | inconclusive [inhibitor, single point] |  |
| Cc1ccccc1CN1CCc2c(OCC(=O)N3CCCc4ccccc43)cccc2C1=O | inactive |  |
| CN(Cc1ccccc1)C(=O)CN(c1ccccc1Cl)S(C)(=O)=O | inconclusive [inhibitor, single point] |  |
| Cc1c(NC(=S)NC(=O)C(C)(C)C)c(=O)n(-c2ccccc2)n1C | inconclusive [inhibitor, single point] |  |
| Cc1cccc(Nc2nc(-c3ccc(F)cc3)cs2)n1 | inconclusive [inhibitor, partial curve] |  |
| NS(=O)(=O)c1ccc(NC(=O)c2ccc3nccnc3c2)cc1 | inactive |  |
| CSCCC1NC(=O)N(CC(=O)Nc2ccc3c(c2)OCCO3)C1=O (stereo unspecified) | inconclusive [inhibitor, single point] |  |
| COc1ccc(OC)c(S(=O)(=O)N(C)CC(=O)N2CCN(c3cccc(Cl)c3)CC2)c1 | inconclusive [inhibitor, partial curve, poor fit] |  |
| Cn1nc(C(=O)Nc2ccccc2N2CCCC2)c2ccccc2c1=O | inactive |  |
| Cc1cc(NS(=O)(=O)c2ccc(NC(=O)/C=C/c3ccco3)cc2)nc(C)n1 | inconclusive [inhibitor, partial curve] |  |
| O=C(O)c1nn(CCOc2cccc(Br)c2)c(=O)c2ccccc12 | inconclusive [inhibitor, single point] |  |
| COC(=O)c1ccc(CSc2nc3c(c(=O)[nH]2)CCC3)cc1 | inconclusive [inhibitor, full curve] |  |
| CCOc1ccc2oc(C(=O)NNC(=O)c3csc(N4CCOCC4)n3)c(C)c2c1 | inconclusive [inhibitor, full curve, poor fit] |  |
| O=C(Cc1ccccc1)NCCc1ccc(Cl)cc1Cl | inconclusive [inhibitor, single point] |  |
| NC(=S)NN=C(c1ccc(F)cc1)C1CC1 | inactive |  |
| CCOc1ccccc1C(=O)NCC(=O)OCC(=O)NCCc1ccc(S(N)(=O)=O)cc1 | inconclusive [inhibitor, partial curve] |  |
| O=C(NC1CCCc2ccccc21)c1cccc(F)c1 (stereo unspecified) | inconclusive [inhibitor, single point] |  |
| Cc1sc(N)c(C(=O)c2ccccc2Cl)c1C | inactive |  |
| COc1ccc(NC(=O)c2cc(-c3cc(Cl)ccc3C)n[nH]2)cn1 | inconclusive [inhibitor, partial curve, poor fit] |  |

| SMILES | Potency | activity change, negative = inhibition |
| --- | --- | --- |
| COc1ccc(-c2nn3c(-c4cccc(C)c4)nnc3s2)cc1OC | inconclusive [inhibitor, single point] |  |
| CCOC(=O)c1cc(-c2ccc(/C=N\n3cnnc3)o2)ccc1Cl | inactive |  |
| OC(c1ccc(CN2CCCCC2)cc1)c1ncc(-c2ccccc2)[nH]1 (stereo unspecified) | inconclusive [inhibitor, partial curve, poor fit] |  |
| CC1(C)c2[nH]c3ccccc3c2C[C@@H]2C(=O)N(Cc3ccccc3Cl)C(=O)N21 | inactive |  |
| CCOC1(OCC)C(c2ccc(N)cc2)C(C#N)(C#N)C1(OCC)OCC (stereo unspecified) | inconclusive [inhibitor, partial curve] |  |
| CCOC(=O)C(Cc1c(F)cccc1Cl)c1ccnc2nc(N)nn12 (stereo unspecified) | inconclusive [inhibitor, partial curve, poor fit] |  |
| CCOc1cc(/C=C2\C(=O)ON=C2c2ccccc2)cc(Br)c1O | inconclusive [inhibitor, partial curve] |  |
| Cc1ccc(Oc2nc(-c3ccccc3)ncc2S(=O)(=O)c2ccc(C)cc2)cc1 | inactive |  |
| ClN=C1C=CC=CC1=NCl | inconclusive [inhibitor, partial curve] |  |
| CCOc1ccc(N=C2NC(=O)S/C2=C\c2ccc(N(C)C)cc2)cc1 | inactive |  |
| CN(Cc1ccccc1F)C(=O)CCCNC(=O)c1ccc(Cl)cc1 | inconclusive [inhibitor, single point] |  |
| Cc1cc(SCC(=O)c2ccc(O)c(O)c2)n2nc(C)c(-c3ccccc3)c2n1 | inconclusive [inhibitor, partial curve] |  |
| C=CCC[C@H](Cc1ccc(F)cc1)C(=O)OC[C@@H](C)NC(=O)[C@@H](CC=C)CC(=O)N[C@@H](CO)Cc1ccccc1 | inconclusive [inhibitor, partial curve] |  |
| Clc1cccc(N2CCN(c3nnnn3-c3ccccc3)CC2)c1 | inconclusive [inhibitor, partial curve] |  |
| CCOC(=O)N1CCN(S(=O)(=O)c2cc(OCC(N)=O)c(C)cc2Cl)CC1 | inconclusive [inhibitor, single point] |  |
| O=C(CCS(=O)(=O)c1cccc2nonc12)NCc1ccc(Cl)cc1 | inconclusive [inhibitor, single point] |  |
| O=C(NCc1csc(-c2cccs2)n1)c1cccc(Cl)c1 | inconclusive [inhibitor, partial curve, poor fit] |  |
| COC(=O)C1=C(C)Nc2nnnn2C1c1ccc(Cl)cc1Cl (stereo unspecified) | inactive |  |
| O=C1C(Cl)=C(NC(=O)c2ccccc2)C(=O)C(Cl)=C1NC(=O)c1ccccc1 | inconclusive [inhibitor, single point] |  |
| O=C(CCc1n[nH]c(=O)[nH]c1=O)N/N=C/c1ccco1 | inactive |  |
| CCOc1ccc(N(CC(=O)NC2CC3CCC2C3)S(=O)(=O)c2ccc(C)cc2)cc1 (stereo unspecified) | inconclusive [inhibitor, full curve, poor fit] |  |
| Cc1oc(-c2ccc(Cl)cc2)nc1CN1CCCC(C(=O)N2CCN(C(=O)c3ccco3)CC2)C1 (stereo unspecified) | inconclusive [inhibitor, partial curve] |  |
